Sequences with one replicate were seen in a single cluster, so their values are uncertain.
What follows are sequences tested on ATP (assay: switch fluorescence ratio, 500 uM ATP over buffer (Cy3 cluster intensity, sum of 5 cycles each) (fold (ratio)); higher = stronger signal-on switching upon ATP binding; sequences stand for … in TCGTCGGCAGCGTCAGATGTGTATAAGAGACAGTTTTTTTTTTTTTTTTTTTTTTTTT…TC). Details: aptamer strand: ATP DNA aptamer (quencher-CACCTGGGGGAGTATTGCGGAGGAAGG + anchor), 100 nM annealed; ATP concentration: 500 uM; one replicate.
Procedure, shortened: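 Clusters carrying Cy3-labelled switching strands on a modified Illumina MiSeq flow-cell were annealed to 100 nM quencher-labelled ATP aptamer and imaged in selection buffer. They were imaged again after 15 min with 500 uM ATP at 22 °C, over five buffer/ATP cycles with NaOH stripping and re-annealing in between. For each cluster, the fluorescence ratio is the summed Cy3 intensity of the target cycles divided by that of the buffer cycles, averaged per switch-domain sequence. Clusters outside 100-1000 RFU were left out.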
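Note: ATP exposure 15 min at 22 °C before imaging.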

**Q.** How did the switch fluorescence ratio turn out when AGACGGAGTC was run?
**A.** 1.02

**Q.** For AGACGTAGAG, which switch fluorescence ratio is on record?
**A.** 0.965

**Q.** Which switch fluorescence ratio does the source give for AGACGTCGCC here?
**A.** 0.989

**Q.** How did the switch fluorescence ratio turn out when AGACTAGCAA was run?
**A.** 1.86

**Q.** How did the switch fluorescence ratio turn out when AGACTAGGAC was run?
**A.** 1.03

**Q.** Which switch fluorescence ratio does the source give for AGACTCATAG here?
**A.** 1.01

**Q.** With AGACTCGGAC as the sequence, how does the switch fluorescence ratio read?
**A.** 1.02

**Q.** Which switch fluorescence ratio does the source give for AGACTCTTGG here?
**A.** 1.02

**Q.** Which switch fluorescence ratio does the source give for AGACTTCATA here?
**A.** 1.01

**Q.** How did the switch fluorescence ratio turn out when AGACTTCCCG was run?
**A.** 1.04

**Q.** With AGACTTCCTG as the sequence, how does the switch fluorescence ratio read?
**A.** 0.949

**Q.** How did the switch fluorescence ratio turn out when AGACTTCTGC was run?
**A.** 0.958

**Q.** How did the switch fluorescence ratio turn out when AGACTTTAAT was run?
**A.** 1.03

**Q.** How did the switch fluorescence ratio turn out when AGAGAAGTT was run?
**A.** 0.976

**Q.** With AGAGACATA as the sequence, how does the switch fluorescence ratio read?
**A.** 1.01

**Q.** How did the switch fluorescence ratio turn out when AGAGACTGTT was run?
**A.** 0.989

**Q.** AGAGAGACGC was tested. Which switch fluorescence ratio did it give?
**A.** 1.13

**Q.** How did the switch fluorescence ratio turn out when AGAGAGGAGC was run?
**A.** 1.04

**Q.** How did the switch fluorescence ratio turn out when AGAGAGTACA was run?
**A.** 0.993

**Q.** For AGAGAGTACC, which switch fluorescence ratio is on record?
**A.** 0.989

**Q.** With AGAGATGGCC as the sequence, how does the switch fluorescence ratio read?
**A.** 1.01

**Q.** With AGAGCAAGCC as the sequence, how does the switch fluorescence ratio read?
**A.** 1.55

**Q.** How did the switch fluorescence ratio turn out when AGAGCATCTT was run?
**A.** 0.972

**Q.** AGAGCCTATA was tested. Which switch fluorescence ratio did it give?
**A.** 0.967

**Q.** Which switch fluorescence ratio does the source give for AGAGCCTATT here?
**A.** 0.978

**Q.** Which switch fluorescence ratio does the source give for AGAGCGGGAG here?
**A.** 0.946

**Q.** How did the switch fluorescence ratio turn out when AGAGGATCTA was run?
**A.** 1.08

**Q.** How did the switch fluorescence ratio turn out when AGAGGATTAT was run?
**A.** 1

**Q.** For AGAGGCTCTT, which switch fluorescence ratio is on record?
**A.** 1.04

**Q.** How did the switch fluorescence ratio turn out when AGAGGGACAG was run?
**A.** 0.982

**Q.** Which switch fluorescence ratio does the source give for AGAGGGATTT here?
**A.** 0.992

**Q.** How did the switch fluorescence ratio turn out when AGAGGGCCAG was run?
**A.** 0.988

**Q.** AGAGGGCTT was tested. Which switch fluorescence ratio did it give?
**A.** 0.981

**Q.** Which switch fluorescence ratio does the source give for AGAGGGGAGA here?
**A.** 1.03

**Q.** How did the switch fluorescence ratio turn out when AGAGGTAGGT was run?
**A.** 1

**Q.** AGAGGTCTTT was tested. Which switch fluorescence ratio did it give?
**A.** 0.975

**Q.** AGAGGTTTAT was tested. Which switch fluorescence ratio did it give?
**A.** 1.02

**Q.** For AGAGTAAGCG, which switch fluorescence ratio is on record?
**A.** 0.988

**Q.** For AGAGTGCGAA, which switch fluorescence ratio is on record?
**A.** 1.03

**Q.** For AGAGTGTCAA, which switch fluorescence ratio is on record?
**A.** 0.972

**Q.** AGAGTGTGT was tested. Which switch fluorescence ratio did it give?
**A.** 1.01

**Q.** With AGAGTGTTAG as the sequence, how does the switch fluorescence ratio read?
**A.** 0.963

**Q.** AGAGTTGTTC was tested. Which switch fluorescence ratio did it give?
**A.** 1.02

**Q.** Which switch fluorescence ratio does the source give for AGAGTTTAA here?
**A.** 1.05

**Q.** For AGATAAATGG, which switch fluorescence ratio is on record?
**A.** 0.973

**Q.** With AGATAACCGG as the sequence, how does the switch fluorescence ratio read?
**A.** 0.994

**Q.** For AGATAAGCGG, which switch fluorescence ratio is on record?
**A.** 1.02

**Q.** With AGATAAGTAA as the sequence, how does the switch fluorescence ratio read?
**A.** 1.02

**Q.** With AGATACGTCA as the sequence, how does the switch fluorescence ratio read?
**A.** 1.08

**Q.** AGATACTGGG was tested. Which switch fluorescence ratio did it give?
**A.** 1.07

**Q.** How did the switch fluorescence ratio turn out when AGATATATTT was run?
**A.** 1

**Q.** With AGATATGTAT as the sequence, how does the switch fluorescence ratio read?
**A.** 0.958

**Q.** With AGATATTTTA as the sequence, how does the switch fluorescence ratio read?
**A.** 1

**Q.** How did the switch fluorescence ratio turn out when AGATCAACAT was run?
**A.** 1.03

**Q.** Which switch fluorescence ratio does the source give for AGATCCTTT here?
**A.** 1

**Q.** With AGATCTAGAC as the sequence, how does the switch fluorescence ratio read?
**A.** 1.06

**Q.** AGATGAAGGA was tested. Which switch fluorescence ratio did it give?
**A.** 0.989

**Q.** AGATGACCGT was tested. Which switch fluorescence ratio did it give?
**A.** 1.04

**Q.** Which switch fluorescence ratio does the source give for AGATGACTTG here?
**A.** 1.06

**Q.** Which switch fluorescence ratio does the source give for AGATGAGACA here?
**A.** 0.978

**Q.** AGATGAGGC was tested. Which switch fluorescence ratio did it give?
**A.** 1

**Q.** With AGATGATACC as the sequence, how does the switch fluorescence ratio read?
**A.** 1.02

**Q.** AGATGCCGAT was tested. Which switch fluorescence ratio did it give?
**A.** 1

**Q.** Which switch fluorescence ratio does the source give for AGATGCCGCT here?
**A.** 0.966

**Q.** With AGATGCGAAT as the sequence, how does the switch fluorescence ratio read?
**A.** 0.935

**Q.** For AGATGGCGAG, which switch fluorescence ratio is on record?
**A.** 0.98

**Q.** How did the switch fluorescence ratio turn out when AGATTACGTT was run?
**A.** 1.01

**Q.** AGATTCACAG was tested. Which switch fluorescence ratio did it give?
**A.** 1.01

**Q.** For AGATTCCT, which switch fluorescence ratio is on record?
**A.** 1.02

**Q.** How did the switch fluorescence ratio turn out when AGATTGCGG was run?
**A.** 0.944

**Q.** AGATTGCTGC was tested. Which switch fluorescence ratio did it give?
**A.** 1.03

**Q.** Which switch fluorescence ratio does the source give for AGATTGGAAA here?
**A.** 0.984

**Q.** AGATTGTTTT was tested. Which switch fluorescence ratio did it give?
**A.** 1.02

**Q.** With AGATTTTAGC as the sequence, how does the switch fluorescence ratio read?
**A.** 0.969

**Q.** For AGATTTTCAG, which switch fluorescence ratio is on record?
**A.** 1.03

**Q.** Which switch fluorescence ratio does the source give for AGCAAAAGTA here?
**A.** 1.04

**Q.** How did the switch fluorescence ratio turn out when AGCAAAATTT was run?
**A.** 1.02

**Q.** How did the switch fluorescence ratio turn out when AGCAAACCCG was run?
**A.** 1.08

**Q.** AGCAAATCTA was tested. Which switch fluorescence ratio did it give?
**A.** 1.06

**Q.** With AGCAAATGT as the sequence, how does the switch fluorescence ratio read?
**A.** 1.03

**Q.** Which switch fluorescence ratio does the source give for AGCAACGTCC here?
**A.** 1.13

**Q.** AGCAACGTGG was tested. Which switch fluorescence ratio did it give?
**A.** 0.987

**Q.** Which switch fluorescence ratio does the source give for AGCAAGAATA here?
**A.** 1.09

**Q.** AGCACAGATT was tested. Which switch fluorescence ratio did it give?
**A.** 1.01

**Q.** How did the switch fluorescence ratio turn out when AGCACAGTGT was run?
**A.** 1.04
